Test results reported in paper PMC12136788.
This is one part of the list.

T1: UNK ZnF1-3 (human, UniProt Q9C0B0 31-174)
T1 sequence: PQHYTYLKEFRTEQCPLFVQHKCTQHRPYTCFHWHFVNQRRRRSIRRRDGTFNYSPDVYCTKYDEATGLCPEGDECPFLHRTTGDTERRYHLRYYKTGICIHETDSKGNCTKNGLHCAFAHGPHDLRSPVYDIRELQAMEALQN

B1: 2817066_2817186_7146_CDS_ENSG00000167978_ENST00000301740|human|control|control (ssRNA)
RNA: GGGAGUUCUACAGUCCGACGAUCACUCAUGAGAGGCACCGGGGCUGGAACCUGGGACAUUCUUGCAGCAAGGCCAGCAGCAGACAUGGACGGAGGAGGCCGAGCGGUGCCAAGACUGAUAGCUGUCAGGGCAAGUGCAAUCCUCAACAGAGGAUUGAGCAUCA
B2: chr14:53113150:53113151:-_ENSG00000197930_ENST00000395686|hu_mus|FALSE|FALSE (ssRNA)
RNA: GGGAGUUCUACAGUCCGACGAUCGCCCCACAGGCGGCACUUGAAGCAGCCAACACAGUCCAUGAUUCUUGAAAUGUUCCUAAAGUGUAGCCGGAAGUCCUCCUUUAGUUUAUGUGCUUCGUUUUUAUCCCCAGCAAAAAAAGACAACAGAGGAUUGAGCAUCA
B3: 59272101_59272221_1014_CDS_ENSMUSG00000026024_ENSMUST00000027178|mouse|control|control (ssRNA)
RNA: GGGAGUUCUACAGUCCGACGAUCGGAAAUGGCACUGCCACUUGUGGUCUGACUGCUUCCCAUGUUCAGUUCAGCUUCUACCACCGUGUUCUCAAACACCUCUCCCUGCUCAUCCAGUGCCUCUGGGUGAGGGCUGGGAGCAGGCAACAGAGGAUUGAGCAUCA
B4: 222889140_222892615_565_CDS_ENSG00000162819_ENST00000340934|human|control|control (ssRNA)
RNA: GGGAGUUCUACAGUCCGACGAUCAUUUAUGAAACCUUGUAAAAGUGAGAAAUAUGAAUCUGCUGCAUUCUUCAUCAUUUCUGGAUUACAGCUCAAAUCAGUGAACAGUUCAAGGAGUCGUGCCCUGGAUGACCUCAAGUCAUUCAACAGAGGAUUGAGCAUCA
B5: chr4:115894766:115894767:+_ENSMUSG00000028698_ENSMUST00000030464|mus_hu|mus_mus_mus_hu_True|18_18 (ssRNA)
RNA: GGGAGUUCUACAGUCCGACGAUCUUCCACACGGAAAUGUACUUCGGGUUUUCCAACGGCCAGUACCAGUCCGGCCAAACUACCCGAACAGGGUCCUCCCCCUCUCUCCUACAGAACUAAAGCACCCGCCCCCGAACUUUCAAGCAACAGAGGAUUGAGCAUCA
B6: chr11:53076483:53076484:-_ENSMUSG00000020361_ENSMUST00000020630|mus_mus|FALSE|FALSE (ssRNA)
RNA: GGGAGUUCUACAGUCCGACGAUCUUCAAAUAAUUUUGGUCUUUCUUCAGAUUCCUGGAACCGUGUCUUAAUGGGUUGACCUAAACUUUUUAAUUCAGCCAAUUUGUCUACAUAAACUUGCUUUGGUUGAUCUUCUCCAUCUUCCAACAGAGGAUUGAGCAUCA
B7: chr5:64741823:64741824:+_ENSMUSG00000029174_ENSMUST00000119756|mus_hu|FALSE|FALSE (ssRNA)
RNA: GGGAGUUCUACAGUCCGACGAUCGAAAUAUCUCAGACCCCACAACUGCAGCUCACAUGCUAGCAAUACCUGGUAGGGUCUAAAAGGUGUCAGCUGUCCCAUAAAGCAUUUACCUACUAUGACUUUGAUCAACUGUACUUAUGGCAACAGAGGAUUGAGCAUCA
B8: chr4:41951345:41951346:+_ENSG00000109133_ENST00000513702|hu_mus|FALSE|FALSE (ssRNA)
RNA: GGGAGUUCUACAGUCCGACGAUCAAACAAGUUCCGACAAUAUGGAUUUCUUCUAGAGGAAUAUCGAAGAGUAAGAAAUCUAUAAUAUAUAAAAGGCUGGAGCAAACUUCCUUGGCCACUAAAGAGCAUAAAAACUGUAGCAGGCAACAGAGGAUUGAGCAUCA
B9: 114522497_114522721_1165_CDS_ENSMUSG00000031948_ENSMUST00000034426|mouse|control|control (ssRNA)
RNA: GGGAGUUCUACAGUCCGACGAUCUCGGAAGGGUGGGGUGAAGUCGACCUCGUAGGCUUGGCCUUCCGGCCCAUCUGGGUGGUAGGUGAUCUUGUAACUGCCUGUAAUGCUCUUCACCAUCCCUGACAGCAUCUUCUCUGUGAUCAACAGAGGAUUGAGCAUCA
B10: chr1:154963231:154963232:+_ENSMUSG00000042751_ENSMUST00000043313|mus_hu|FALSE|FALSE (ssRNA)
RNA: GGGAGUUCUACAGUCCGACGAUCCUUGGCCUUCUCUACUGGGUGUGGCCCUGAUGAACUCACUGAGUGCUGAGGCUGGCUACAAUGUCCUAUCAGAGGGGAAGUAAUACCACAGGAGCACAUCAAGACUACAAACAUAAAGAACAACAGAGGAUUGAGCAUCA
B11: chr2:9570881:9570882:+_ENSG00000119203_ENST00000238112|hu_mus|hu_hu_hu_mus_False|8_28 (ssRNA)
RNA: GGGAGUUCUACAGUCCGACGAUCACUUGUCUUCUGAAGGAACCAGGGCAGGGCUCCACAGUGAUCCAAAUGGAAAUGACUGAUCAACAGAAGGUCGAUCUCAGCUGGGUCAAUUAAGUCAAUGUAAGGAAGAGCAUCCAUUCCCAACAGAGGAUUGAGCAUCA
B12: chr8:95500983:95500984:-_ENSG00000164944_ENST00000437199|hu_hu|hu_hu_hu_mus_True|1_68 (ssRNA)
RNA: GGGAGUUCUACAGUCCGACGAUCAGAACACAUCUAUCGAGUAAAGGACCGUACAUGACGGCCUCUAACCACUGCCUCACUAACAAACUUUCCUCUCGAGCCUCCACUGCCGCUAUUUGUACUAGCCCAGGACGGUCCCAAGUCCAACAGAGGAUUGAGCAUCA
B13: chr2:128891733:128891734:+_ENSMUSG00000027394_ENSMUST00000035812|mus_mus|motif|central (ssRNA)
RNA: GGGAGUUCUACAGUCCGACGAUCCCUCAGCCUCAGCCCCGCUGUCGGUCUAAUUCCAGGGCCGCGCCUCCGGAUUACCCGGGUGUCUGCCCUGGGCGCCCGCGCCACCGCCCGAGUGGCGAGCGCCACCCGGACGCCGCGCCCCAACAGAGGAUUGAGCAUCA
B14: chr7:92027835:92027836:+_ENSG00000001629_ENST00000265742|hu_mus|FALSE|FALSE (ssRNA)
RNA: GGGAGUUCUACAGUCCGACGAUCAUUGGCACUGGGGUCCUGGCCAGCUGAGUCAAGGUCACUGGAAGAGGGACAGAAAUCACUUCUUGUCUCACUGAGAGGGCGUGAACUCAAAGUGUCAGUUGAAAAUGGGUCACUGUCUGCCAACAGAGGAUUGAGCAUCA

biological target: T1, UNK ZnF1-3; test: nsRBNS (natural sequence RNA bind-n-seq); RBNS binding buffer (assumed for nsRBNS): 25 mM Tris pH 7.5, 150 mM KCl, 3 mM MgCl2, 0.01% Triton X-100, 500 ug/ml BSA, 20 U/ml SUPERase-In, 4 C; UNK is unkempt and MSI1 is Musashi-1; names of the RNAs are library labels; protein concentration not given here; high values mean tight binding

B1 was tested. Which binding signal did it give?
Its binding signal is 1.28 enrichment R.

For B2, which binding signal is on record?
Its binding signal is 1.59 enrichment R.

How did the binding signal turn out when B3 was run?
Its binding signal is 0.684 enrichment R.

How did the binding signal turn out when B4 was run?
The binding signal was 0.706 enrichment R.

B5 was tested. Which binding signal did it give?
Its binding signal is 1.07 enrichment R.

Which binding signal does the source give for B6 here?
Its binding signal is 0.655 enrichment R.

For B7, which binding signal is on record?
Its binding signal is 0.524 enrichment R.

For B8, which binding signal is on record?
The binding signal was 2.07 enrichment R.

Which binding signal does the source give for B9 here?
The binding signal was 0.66 enrichment R.

For B10, which binding signal is on record?
The binding signal was 1.17 enrichment R.

With B11 as the binder, how does the binding signal read?
Its binding signal is 1.47 enrichment R.

Which binding signal does the source give for B12 here?
The binding signal was 1.04 enrichment R.

B13 was tested. Which binding signal did it give?
Its binding signal is 0.864 enrichment R.

With B14 as the binder, how does the binding signal read?
The binding signal was 1.35 enrichment R.
